Measurements: PubChem BioAssay AID1346428 (National Center for Advancing Translational Sciences (NCATS), 2018)
The whole screen tested about 48,000 compounds, of which about 1,200 (2.5%) were called active. Roughly 2% stayed inconclusive and do not appear here.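 The calls were made as follows: active = activation of at least 60% and not above a set upper limit (about 1 call in 100 departs from these limits); inconclusive = activation of 40% to 60%, or above that upper limit; inactive = activation under 40%.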 The list shows a part of the results.

These molecules were tested against Probable G-protein coupled receptor 32 (Homo sapiens) (UniProt O75388) (assay: qHTS for Agonists of Human Resolvin D1 Receptor DRV1). Conditions: CHO-K1 GPR32 beta-arrestin PathHunter luminescence, 90 min; at 76.9 µM; hits give high values; zero percent set by DMSO-only wells.
UniProt O75388, sequence (O75388 whole entry, looked up, the tested form may be a part): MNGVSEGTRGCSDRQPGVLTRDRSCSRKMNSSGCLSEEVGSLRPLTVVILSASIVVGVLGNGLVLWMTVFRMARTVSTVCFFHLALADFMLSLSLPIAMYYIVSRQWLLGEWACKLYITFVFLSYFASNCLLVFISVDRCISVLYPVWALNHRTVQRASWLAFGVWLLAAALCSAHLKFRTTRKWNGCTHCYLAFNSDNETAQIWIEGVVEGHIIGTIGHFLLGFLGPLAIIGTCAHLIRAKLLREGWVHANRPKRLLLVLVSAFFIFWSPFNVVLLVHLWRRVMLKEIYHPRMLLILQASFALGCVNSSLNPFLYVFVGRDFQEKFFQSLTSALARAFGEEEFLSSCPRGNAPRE
Summary of the method: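 PathHunter enzyme-fragment complementation, CHO-K1 GPR32 stable line; 2,500 cells/well, overnight attach; cpd 90 min 37 °C 5% CO2; detection reagent 1 h RT; chemiluminescence. DMSO = EC0.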
Also: 0% is about no effect.

activation, inactive:
CCc1ccc(NC(=O)CSc2c(C)cnc3c2c(=O)n(C)c(=O)n3C)cc1 3.16%
Cc1nc2sccn2c(=O)c1S(=O)(=O)NCc1ccc(F)cc1 0.583%
Cc1ccc(Cn2c(CNS(=O)(=O)c3ccc(C(C)(C)C)cc3)nc3cccnc32)cc1 -31.2%
COc1ccccc1CNc1nc2ccccc2c2nc(-c3cccnc3)nn12 -10.9%
O=C(COc1ccccc1Cl)OCc1cc(=O)n2nc(C3CC3)sc2n1 -3.62%
COc1ccc(NC(=O)C(=O)NCCc2ccc(OC)c(OC)c2)c(OC)c1 9.02%
Cc1c(NC(=O)c2cc(-c3ccc(O)cc3)on2)c(=O)n(-c2ccccc2)n1C -8.05%
COCCCNC(=O)c1cnn(-c2ccccc2Cl)c1C1CCN(C(=O)OC(C)(C)C)CC1 -15.6%
COc1ccc(CCNC(=O)c2cccc(-n3c(C)nc4cccnc43)c2)cc1OC 2.05%
COc1ccc(-c2cc3nc(-c4ccc(Br)cc4)cc(C(F)(F)F)n3n2)cc1 -2.4%
COC(=O)c1ccc(NC(=O)CSc2cn(CC(=O)N3CCCCCC3)c3ccccc23)cc1 -14.8%
COc1ccc(CNC(=O)C2CCN(C(=O)c3ccc(-n4ccc5ccccc54)s3)CC2)cc1 -0.76%
CCN(CC)c1nn2c(=O)c(C(=O)NCc3cccc(C)c3)cnc2s1 -6.67%
COc1ccc(Cn2c(SCc3ccc(C(=O)NCCc4ccccc4)cc3)nc3cccnc32)cc1 22.9%
Cn1c(=O)n(C/C=C/c2ccccc2)c(=O)c2c1nc1n2CCN1c1ccc(Cl)cc1 -0.165%
Cc1nn(C(=O)c2cccc(F)c2)c(C)c1S(=O)(=O)N1CCCCCC1 3.63%
CCC(C)NC(=O)Cn1c(=O)n(Cc2ccc(C(=O)NCc3ccccc3OC)cc2)c(=O)c2ccccc21 (stereo not drawn) -3.45%
CCCN1CCN(CCCNC(=O)Cn2c(-c3cccs3)cc3ccccc32)CC1 1.41%
Cc1ccc(NC(=O)CSc2ncnc3c2sc2ccccc23)cc1C -10.7%
CCn1cc(S(=O)(=O)c2ccc(C)cc2)c(=O)c2cc(F)c(N3CCCCCC3)cc21 0.644%
CCOC(=O)c1[nH]c(C)c(CCC(=O)NCc2ccccc2C)c1C -13.9%
Cn1nc(-c2ccccc2F)c2cc(C(=O)N3CCN(c4ccc(F)cc4)CC3)sc21 20.3%
Cc1ccc(C)c(NC(=O)CSc2nc(=O)n(Cc3ccccn3)c3c2CCC3)c1 -1.14%
